Source: PubChem BioAssay AID493035 (The Scripps Research Institute Molecular Screening Center, 2011)
In all, about 2,000 compounds went through this assay and about 45 (2%) were called active.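 Rule for the calls: active = inhibition above the mean of all tested compounds plus 3 SD (cut at about 49% in these data); inactive = the rest.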 The list shows a part of the results.

target: Perilipin-5 (Homo sapiens) + 1-acylglycerol-3-phosphate O-acyltransferase ABHD5 (Homo sapiens) (UniProt Q00G26+Q8WTS1); assay: blockers of ABHD5 binding to perilipin-5 – cell lysate, split luciferase complementation, luminescence, NIH validation set, pilot screen (AID 493035);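 note: 0% = DMSO only wells while the 100% control is not stated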; conditions: split G. princeps luciferase complementation, lysates, 4 h; at 7.9 µM, hits give high values
UniProt Q00G26, sequence (Q00G26 whole entry, looked up): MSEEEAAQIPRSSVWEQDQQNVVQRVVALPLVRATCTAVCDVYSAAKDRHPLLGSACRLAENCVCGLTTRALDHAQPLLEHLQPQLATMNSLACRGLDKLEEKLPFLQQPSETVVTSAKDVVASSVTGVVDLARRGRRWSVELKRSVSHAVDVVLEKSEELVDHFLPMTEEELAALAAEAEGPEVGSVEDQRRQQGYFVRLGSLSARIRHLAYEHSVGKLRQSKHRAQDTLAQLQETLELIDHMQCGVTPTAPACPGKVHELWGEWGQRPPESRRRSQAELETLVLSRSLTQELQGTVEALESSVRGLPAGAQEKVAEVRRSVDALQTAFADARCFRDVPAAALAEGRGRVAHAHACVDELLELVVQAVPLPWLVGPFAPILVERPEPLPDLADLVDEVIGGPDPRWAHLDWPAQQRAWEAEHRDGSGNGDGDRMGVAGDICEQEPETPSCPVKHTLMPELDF
UniProt Q00G26, sequence (Q8WTS1 whole entry, looked up): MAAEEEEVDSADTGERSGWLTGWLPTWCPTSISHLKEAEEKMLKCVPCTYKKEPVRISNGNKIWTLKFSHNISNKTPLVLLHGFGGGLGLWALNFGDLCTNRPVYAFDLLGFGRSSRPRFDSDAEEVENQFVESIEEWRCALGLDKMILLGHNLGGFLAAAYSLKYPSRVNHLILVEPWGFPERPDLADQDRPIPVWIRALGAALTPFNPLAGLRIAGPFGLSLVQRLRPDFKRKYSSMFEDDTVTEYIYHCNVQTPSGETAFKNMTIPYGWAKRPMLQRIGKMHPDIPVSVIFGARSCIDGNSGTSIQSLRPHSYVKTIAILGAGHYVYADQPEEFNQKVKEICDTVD

inhibition, inactive:
CN1[C@@H](CC(=O)c2ccccc2)CCC[C@H]1C[C@H](O)c1ccccc1 4.57%, c1ccc2[nH]c(-c3cscn3)nc2c1 -15.1%, CCC(C)NCCOCCOc1ccc(Cl)cc1Br (stereo not drawn) -7%, COc1cc(NC(=S)NN2CCN(C)CC2)cc(OC)c1OC -3.64%, CC1=NN(C(=O)c2ccc(Br)cc2)C(O)(c2ccccc2)C1 (stereo not drawn) 5.38%, CC12CC(c3ccccc3O1)C(C(=O)N1CCOCC1)C(=O)N2 (stereo not drawn) -15.3%, O=C(c1ccc(Cl)cc1)C1CCCN(Cc2ccc(Oc3ncccn3)cc2)C1 (stereo not drawn) 4.37%, O=C(OCCNC(=O)c1ccc2ccccc2n1)c1ccc(F)cc1 4.32%, COc1ccccc1C(O)c1nccn1C (stereo not drawn) -0.96%, COc1ccc2c(c1)[N+](C)(C)C(C)(C)C=C2C -0.6%, C#CCN1C(=O)C(O)(c2c(C)[nH]c3ccccc23)c2ccccc21 (stereo not drawn) -2.46%, Cn1c(=O)c2[nH]cnc2n(C)c1=O 4.42%, CN(C)CCC=C1c2ccccc2CCc2ccccc21 -18.3%, Cc1ccnc2c1NC(=O)c1cccnc1N2C1CC1 -6.42%, C#C[C@]1(O)CC[C@H]2[C@@H]3CCc4cc(OC5CCCC5)ccc4[C@H]3CC[C@@]21C -6.78%, COc1ccc(CN2CCC(=O)NC2=O)cc1 -1.7%, COc1cc(C(=O)OCCn2c(=O)c3c(ncn3CCN(C)C)n(C)c2=O)cc(OC)c1OC -2.69%, COc1ccc(-c2c[n+](CC(=O)OC3CC(C)CCC3C(C)C)c3n2CCC3)cc1 (stereo not drawn) 11.4%, O=C(COc1ccccc1)N1CCN(c2ccccc2)CC1 -2.97%, COC(=O)c1cc(OC)c(OC)cc1NC(=O)Nc1ccc(OC)cc1OC -2.97%, COc1ccc(C2C(=O)c3ccccc3C2=O)cc1 -1.24%, Cc1cccc(C)c1NC(=O)C1CCCCN1C (stereo not drawn) -9.47%, CCOC(=O)c1c(C)oc2cc(Br)c(OC(C)C(=O)OCC)cc12 (stereo not drawn) -0.05%, Nc1ccc(S(N)(=O)=O)cc1N 14.3%, Cc1ncc([N+](=O)[O-])n1CC(O)CCl (stereo not drawn) 2.35%, CN1C(C(=O)Nc2ccccn2)=C(O)c2sccc2S1(=O)=O 2.19%, CCc1ccc2oc(=O)cc(CN3CCC(C)CC3)c2c1 -10.3%, CCOC(=O)C1=C(N)Oc2c(oc(CO)cc2=O)C1c1ccc(F)c(F)c1 (stereo not drawn) -8.25%
